The values below come from the supplement of paper PMC8047034.

Structures can show the parent of a compound that is named as a salt. The list shows a part of the results. Single values are uncertain, as repeats are few or missing.

In one experiment the test system is OVCAR4. The experiment in a line: log2 surviving fraction (library drug vs vehicle, or drug + carboplatin vs carboplatin alone; relative to plate median); ovarian cancer lines: OVCAR4 is platinum-sensitive and Ov4Carbo platinum-resistant; higher = more cell survival. The conditions noted are these: library drug concentration 10 µM; 7 days; carboplatin co-treatment 5 µM.
Take `CC(=O)O[C@H]1C[C@@H]2CC[C@@H]3[C@H](CC[C@@]4(C)[C@H]3C[C@H]([N+]3(C)CCCCC3)[C@@H]4OC(C)=O)[C@@]2(C)C[C@@H]1N1CCCCC1` [Vecuronium Bromide]: the log2 surviving fraction is -1.35. On the same count and under the same terms, in the case of `CN(C)CCOC(c1ccccc1)c1ccccc1` [Diphenhydramine HCl (Benadryl)] it was 0.553; in that of `C#CCC(Cc1cnc2nc(N)nc(N)c2n1)c1ccc(C(=O)N[C@@H](CCC(=O)O)C(=O)O)cc1` (stereo partly specified) [Pralatrexate (Folotyn)], -2.72. Still for that read-out and setting: in the case of `CCN(CC)CC(=O)Nc1c(C)cccc1C` [Lidocaine (Alphacaine)] it was -1.63; in that of `COC(=O)[C@H](Cc1ccccc1)NC(=O)[C@@H](N)CC(=O)O` [Aspartame], 1.33; in that of `C=CC[N+]1([C@H]2C[C@H]3[C@@H]4CC[C@H]5C[C@H](O)[C@@H](N6CCOCC6)C[C@]5(C)[C@H]4CC[C@]3(C)[C@H]2OC(C)=O)CCCC1` [Rocuronium bromide], 1.37. As for `C#C[C@]1(O)C=C[C@H]2[C@@H]3CCC4=CC(=O)CC[C@@H]4[C@H]3CC[C@@]21CC` [Gestodene], the log2 surviving fraction is -1.29.

A further experiment has as its system Ov4Carbo. Described as above. The conditions noted are these: library drug concentration 10 µM; 7 days; carboplatin co-treatment 0 µM.
With `CCCCc1nc(Cl)c(CO)n1Cc1ccc(-c2ccccc2-c2nnn[nH]2)cc1` [Losartan potassium], the log2 surviving fraction is -9.59.

As for `CC(C)CC(N)=O` [Isovaleramide], the log2 surviving fraction came to 0.974.

Regarding `CN1Cc2c(N)cccc2C(c2ccccc2)C1` (stereo unspecified) [Nomifensine Maleate], the log2 surviving fraction was -0.00667. As to `CS(=O)(=O)c1ccc([C@@H](O)[C@@H](CO)NC(=O)C(Cl)Cl)cc1` [Thiamphenicol (Thiophenicol)], the log2 surviving fraction stood at 0.562. With `CCCCCCCCOc1ccccc1C(=O)Nc1ccc(C(=O)OCC[N+](C)(CC)CC)cc1` [Otilonium Bromide], the log2 surviving fraction was 0.44. Same read-out and setting: in the case of `c1ccc(C2CN3CCSC3=N2)cc1` (stereo unspecified) [Tetramisole HCl] it was 0.394; in that of `Nc1ccn(C[C@@H](CO)OCP(=O)(O)O)c(=O)n1` [Cidofovir (Vistide)], 1.06. In the case of `COc1c(C)c2c(c(O)c1C/C=C(\C)CCC(=O)O)C(=O)OC2` [Mycophenolic (Mycophenolate)], the log2 surviving fraction was -5.33. For the compound `CCC[C@@H]1C[C@@H](C(=O)N[C@@H]([C@H]2O[C@H](SC)[C@H](O)[C@@H](O)[C@H]2O)[C@@H](C)O)N(C)C1` [Lincomycin hydrochloride (Lincocin)], the log2 surviving fraction was 0.251. Consider `Cn1c(=O)c2[nH]cnc2n(C)c1=O` [Aminophylline (Truphylline)], for which the log2 surviving fraction was 0.745. On the same count and under the same terms, in the case of `CN(C)[C@@H]1C(O)=C(C(N)=O)C(=O)[C@@]2(O)C(O)=C3C(=O)c4c(O)cccc4[C@@](C)(O)[C@H]3[C@H](O)[C@@H]12` [Oxytetracycline (Terramycin)] it was -0.0462.

Take `CN/C(=N\CCSCc1nc[nH]c1C)NC#N` [Cimetidine (Tagamet)]: the log2 surviving fraction worked out at 0.0491. Turning to `N#CC[C@H](C1CCCC1)n1cc(-c2ncnc3[nH]ccc23)cn1`, the log2 surviving fraction came to 0.558.

On to `Cn1cnc([N+](=O)[O-])c1Sc1ncnc2[nH]cnc12` [Azathioprine (Azasan, Imuran)], for which the log2 surviving fraction was -2.45. Regarding `Cc1nnc(C(=O)NC(C)(C)c2nc(C(=O)NCc3ccc(F)cc3)c(O)c(=O)n2C)o1` [Raltegravir (MK-0518)], the log2 surviving fraction was -1.3. The same measure, in the same setting: as for `NCCS` [Cysteamine HCl], the figure is -0.89. On the same count and under the same terms, in the case of `CCOc1nc2cccc(C(=O)O)c2n1Cc1ccc(-c2ccccc2-c2nnn[nH]2)cc1` [Candesartan (Atacand)] it was 0.549. Still for that read-out and setting: as for `Cc1nccn1CC1CCc2c(c3ccccc3n2C)C1=O` (stereo unspecified) [Ondansetron hydrochloride (Zofran)], the figure is 0.768.

For the compound `COc1ccc(CN2CCN(C(c3ccc(F)cc3)c3ccc(F)cc3)CC2)c(OC)c1OC` [Lomerizine HCl], the log2 surviving fraction was 0.177.

On to `CN1CCN(C2=Nc3ccccc3Oc3ccc(Cl)cc32)CC1` [Loxapine Succinate], for which the log2 surviving fraction is -0.651. Still for that read-out and setting: as for `CC(NC(C)(C)C)C(=O)c1cccc(Cl)c1` (stereo unspecified) [Amfebutamone (Bupropion)], the figure is 2.07; as for `CC(=O)OCC1=C(C(=O)O)N2C(=O)[C@@H](NC(=O)CSc3ccncc3)[C@H]2SC1` [Cephapirin Sodium], -0.145.

Consider `C[C@@H](O[C@H]1OCCN(Cc2nn(P(=O)(O)O)c(=O)[nH]2)[C@H]1c1ccc(F)cc1)c1cc(C(F)(F)F)cc(C(F)(F)F)c1` [Fosaprepitant dimeglumine], for which the log2 surviving fraction is -2.11. Consider `COc1cc(Cc2cnc(N)nc2N)cc(OC)c1OC` [Trimethoprim], for which the log2 surviving fraction turned out to be 1.11. The same measure, in the same setting: as for `C#C[C@]1(O)CC[C@H]2[C@@H]3CCC4=CC(=O)CC[C@@H]4[C@H]3CC[C@@]21CC` [Levonorgestrel (Levonelle)], the figure is -0.142. On the same count and under the same terms, in the case of `CNCC(O)c1ccc(O)c(O)c1` (racemic) [DL-Adrenaline] it was -0.00321; in that of `CCN(CC)CCNC(C(=O)OCCC(C)C)c1ccccc1` (stereo unspecified) [Camylofin Chlorhydrate], -0.044. `CCN(CC)C(=O)/C(C#N)=C/c1cc(O)c(O)c([N+](=O)[O-])c1` [Entacapone]: the log2 surviving fraction came out at 0.0309. Take `CC(=O)[C@H]1CC[C@H]2[C@@H]3CCC4=CC(=O)CC[C@]4(C)[C@H]3CC[C@]12C` [Progesterone (Prometrium)]: the log2 surviving fraction is -0.457. With `CC1CC(OC(=O)C(O)c2ccccc2)CC(C)(C)C1` (stereo unspecified) [Cyclandelate], the log2 surviving fraction was -0.0147. The same measure, in the same setting: as for `O=c1[nH]c(=O)n(C2CCCO2)cc1F` (stereo unspecified) [Ftorafur], the figure is 0.332; as for `CC[C@H](C)C[C@H](C)CCCCCCCCC(=O)N[C@H]1C[C@@H](O)[C@@H](NCCN)NC(=O)[C@@H]2[C@@H](O)CCN2C(=O)[C@H]([C@H](O)CCN)NC(=O)[C@H]([C@H](O)[C@@H](O)c2ccc(O)cc2)NC(=O)[C@@H]2C[C@@H](O)CN2C(=O)[C@H]([C@@H](C)O)NC1=O` [Caspofungin acetate], 0.428. Same read-out and setting: in the case of `CC(=O)O[C@H]1C[C@@H]2CC[C@@H]3[C@H](CC[C@@]4(C)[C@H]3C[C@H]([N+]3(C)CCCCC3)[C@@H]4OC(C)=O)[C@@]2(C)C[C@@H]1N1CCCCC1` [Vecuronium Bromide] it was 0.442; in that of `CN(C)CCOC(c1ccccc1)c1ccccc1` [Diphenhydramine HCl (Benadryl)], 0.0465; in that of `C#CCC(Cc1cnc2nc(N)nc(N)c2n1)c1ccc(C(=O)N[C@@H](CCC(=O)O)C(=O)O)cc1` (stereo partly specified) [Pralatrexate (Folotyn)], -3.69. For `CCN(CC)CC(=O)Nc1c(C)cccc1C` [Lidocaine (Alphacaine)], the log2 surviving fraction came to 0.482. With `COC(=O)[C@H](Cc1ccccc1)NC(=O)[C@@H](N)CC(=O)O` [Aspartame], the log2 surviving fraction was determined as 0.308. On the same count and under the same terms, in the case of `C=CC[N+]1([C@H]2C[C@H]3[C@@H]4CC[C@H]5C[C@H](O)[C@@H](N6CCOCC6)C[C@]5(C)[C@H]4CC[C@]3(C)[C@H]2OC(C)=O)CCCC1` [Rocuronium bromide] it was 0.887; in that of `C#C[C@]1(O)C=C[C@H]2[C@@H]3CCC4=CC(=O)CC[C@@H]4[C@H]3CC[C@@]21CC` [Gestodene], -1.11.
